Measured values taken from article PMC6919601, “Identification of Plasmodium dipeptidyl aminopeptidase allosteric inhibitors by high throughput screening” (PLoS ONE, 2019).
Out of some 110,000 compounds screened, about 230 (0.21%) showed an effect of 50% or more. The list shows a part of the results.

target: DPAP1 (Plasmodium falciparum, UniProt Q8IIJ9); test: primary screen, percent inhibition; read by cleavage of a fluorogenic dipeptide substrate; higher = more effect of the substance; parameters: species or system P. falciparum D10 trophozoite lysates; single well
Sequence (Q8IIJ9 whole entry, looked up): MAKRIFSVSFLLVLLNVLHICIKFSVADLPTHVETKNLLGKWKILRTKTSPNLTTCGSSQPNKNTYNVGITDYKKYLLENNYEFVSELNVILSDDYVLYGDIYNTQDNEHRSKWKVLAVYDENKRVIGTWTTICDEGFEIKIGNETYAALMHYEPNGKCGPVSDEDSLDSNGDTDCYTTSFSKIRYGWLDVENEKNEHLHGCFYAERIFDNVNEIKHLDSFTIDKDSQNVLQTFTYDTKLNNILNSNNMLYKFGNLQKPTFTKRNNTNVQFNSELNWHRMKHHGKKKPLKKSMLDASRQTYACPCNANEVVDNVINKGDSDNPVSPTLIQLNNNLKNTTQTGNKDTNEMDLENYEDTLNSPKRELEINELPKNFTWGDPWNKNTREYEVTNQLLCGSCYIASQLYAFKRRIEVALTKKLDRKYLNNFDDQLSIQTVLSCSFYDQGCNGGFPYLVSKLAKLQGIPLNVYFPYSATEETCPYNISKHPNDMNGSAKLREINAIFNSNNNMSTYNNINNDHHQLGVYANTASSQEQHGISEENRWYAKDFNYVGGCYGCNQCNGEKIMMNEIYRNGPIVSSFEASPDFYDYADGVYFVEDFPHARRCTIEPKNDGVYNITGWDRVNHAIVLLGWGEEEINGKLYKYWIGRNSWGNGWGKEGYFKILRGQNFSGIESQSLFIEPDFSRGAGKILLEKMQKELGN
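Note: 30 min substrate incubation versus DMSO and 10 µM JCP410 controls.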

| Structure (SMILES) | % Inhibition @ 10 uM |
| --- | --- |
| CCN(CC)c1ccc2cc(-c3ncc(-c4ccc(Cl)cc4)o3)c(=O)oc2c1 | -11.6% |
| O=C(c1ccccc1)N1CN(C(=O)c2ccccc2)CN(C(=O)c2ccccc2)C1 | 10% |
| Cc1ccc(-c2csc(/C(C#N)=C/c3ccc(Br)o3)n2)c(C)c1 | -0.591% |
| Cc1nc[nH]c1CSCc1ccc(OCCN(C)C)cc1 | -4.13% |
| Cc1noc(C)c1CS(=O)(=O)C[C@H](NC(=O)N1CCOCC1)C(=O)N[C@H](/C=C/S(=O)(=O)c1ccccc1)CCc1ccccc1 | -3.49% |
| COc1ccc(C2=N/C(=C\c3cc(OC)c(OC)cc3OC)C(=O)O2)c(Cl)c1 | -3.81% |
| COC(=O)c1ccc(-c2ccc(/C=C3/C(=N)N4OC(C)=CC4=NC3=O)o2)cc1 | 2% |
| COCCN1C(=O)c2ccccc2C(C(=O)NCCC(C)C)C1c1c[nH]c2ccccc12 (stereo not drawn) | -2.19% |
| Cc1nc2c(-c3ccc(F)cc3)c(C)nn2c(C)c1CCC(=O)NCc1ccccc1 | 1.26% |
| CC(NS(=O)(=O)c1ccc(OCC(=O)Nc2cccc(Br)c2)cc1)c1ccccc1 (stereo not drawn) | 7.78% |
| CN1CCN(Cc2ccccc2Sc2ccccc2CO)CC1 | -1.06% |
| COc1cc(NC(=O)c2ccco2)c(OC)cc1Cl | -1.77% |
| COCCCN(Cc1ccco1)C(CNS(=O)(=O)c1ccc(Cl)cc1)c1ccccc1 (stereo not drawn) | -4.19% |
| NC1=NC(=O)/C(=C\c2cccc(OCc3ccccc3)c2)S1 | 2.92% |
| COc1ccc2c(CNCc3ccco3)c(C(=O)O)n(Cc3ccc(F)cc3)c2c1 | -0.959% |
| COC(=O)C1=CN(CCc2ccccc2)C=C(C(=O)OC)C1c1ccc(Cl)cc1 | 3.86% |
| COc1cc(/C=C2/NC(=O)NC2=O)c(Br)c(Br)c1O | -3.06% |
| CCC(C(=O)NC(CC(=O)O)c1ccc(OC(C)C)cc1)c1ccccc1 (stereo not drawn) | 8.87% |
| CCNC(=O)c1c(C)nc2ccccn12 | -9.52% |
| CCOCCc1nnc(NC(=O)c2cccc(Br)c2)s1 | 9.39% |
| NC(=O)OCCNC(=O)c1cc2ccccc2oc1=O | 1.7% |
| O=C(Nc1ncc(Cc2cccc3ccccc23)s1)c1ccco1 | -4.35% |
| Cc1ccc(C(=O)CC2(O)C(=O)Nc3ccc(Br)cc32)o1 (stereo not drawn) | -4.15% |
| Cc1cc(C(F)(F)F)nn1CC(=O)Nc1sc2c(c1C(N)=O)CCC(C)C2 (stereo not drawn) | -2.15% |
| CCOC(=O)C1CCCCN1Cc1ccc(F)c(Br)c1 (stereo not drawn) | -1.86% |

| Structure (SMILES) | % Inhibition @ 10 uM |
| --- | --- |
| O=c1oc2cc(O)ccc2cc1-c1csc(-c2ccc(Cl)cc2)n1 | -0.569% |
| COc1ccc(CCNc2nc3c(S(=O)(=O)c4ccccc4)nnn3c3ccccc23)cc1OC | -4.85% |
| Brc1c(-c2ccccc2)nc2ccccn12 | 2.31% |
| CC(=O)Nc1ccc(NC(=O)c2ccc(C(=O)Nc3ccc(NC(C)=O)cc3Br)cc2)c(Br)c1 | -6.07% |
| CCCCN(CC)CCCNC(=O)Cn1ncc2c3ccccc3n(Cc3ccccc3)c2c1=O | -1.58% |
| COC(=O)c1ccc2c(c1)C(C)(C)C(/C=C/c1ccc(OC)c(OC)c1OC)=[N+]2C | 1.74% |
| Cc1cccc(C(=O)/C=C/[n+]2cc(Cl)ccc2N)c1 | -2.77% |
| CC(N)C(=O)NC(Cc1ccc(O)cc1)C(=O)O (stereo not drawn) | 0.566% |
| CCCCN(CC)C(=O)c1cn(CC)c2nc(C)ccc2c1=O | -6.5% |
| CCCCOc1ccc(C2CC(=O)C3=C(C2)c2c(ccc4ccccc24)NC3c2ccc(OC)c(OC)c2)cc1 (stereo not drawn) | -0.736% |
| O=c1nc2s/c(=C\C=C\c3ccccc3)c(=O)n2nc1Cc1ccc(Cl)cc1 | -6.71% |
| COc1ccccc1S(=O)(=O)c1c(C)cc(C)cc1C | 4.16% |
| COCCN1C(=O)C(O)=C(C(=O)c2cc3ccccc3o2)C1c1cccc(OC)c1 (stereo not drawn) | -5% |
| COc1cc(OC)c(C2Nc3ccccc3N=C3CC(C)(C)CC(O)=C32)cc1OC (stereo not drawn) | -6.69% |
| Cc1ccc2c(=O)cc(C(=O)Nc3cccnc3)oc2c1C | -1.47% |
| O=C(Nc1ccc2c(c1)OCCO2)C12CC3CC(C1)CC(n1cnc(Br)n1)(C3)C2 | -16.1% |
| O=[N+]([O-])c1ccc2nc3c4ccccc4n(CCCN4CCCCC4)c3cc2c1 | 1.9% |
| O=C(Nc1ccccc1C(=O)NCCCO)c1cccs1 | -0.28% |
| O=C(NC1CC1)c1cc(-n2cnnc2)ccc1Cl | 2.72% |
| N#CCNC(=O)[C@@H](O)CS(=O)(=O)Cc1ccccc1OC(F)F | -6.98% |
| CCC1CCc2c(O)nc3ccccc3c2O1 (stereo not drawn) | 0.385% |
| CCOc1cccc2c1OC1(C)CC2NC(=O)N1Cc1ccccc1 (stereo not drawn) | -1.92% |
| Cc1[nH]c2ccccc2c1C(=O)/C=C/c1ccccc1Cl | -2.03% |
| O=C1C(/C=N/CCCNC2CCCCC2)=C(O)c2ccccc21 | -0.105% |
| CC(C)(C)N1CC2(c3ccccc3)CN(C(C)(C)C)CC(c3ccccc3)(C1)C2=O | -1.31% |

| Structure (SMILES) | % Inhibition @ 10 uM |
| --- | --- |
| COc1cc(CC2(CCc3ccncc3)C(=O)NC(=O)NC2=O)ccc1OCc1ccccc1 | 1.03% |
| O=C(CCc1nnc2ccc(N3CCCCC3)nn12)N1CCC2(CC1)OCCO2 | 5.05% |
| O=C1C2C3CCC(C3)C2C(=O)N1c1ccc(Cl)cc1 (stereo not drawn) | 4.07% |
| O=C1NC(=O)C(=Cc2ccc(C=C3C(=O)NC(=O)NC3=O)cc2)C(=O)N1 | -0.0369% |
| CNC(=O)C1CC(=O)N(CCc2ccc(C)cc2)C1 (stereo not drawn) | -3.58% |
| Cc1nn(-c2ccccn2)c2c1C(Cl)=C(C#N)CC2 | 2.57% |
| Cc1cc(C)n2nc(C(=O)NCc3ccccc3)c(Br)c2n1 | -1.5% |
| O=C(NCC1CCCO1)c1cccc(N2C(=O)c3ccc(Br)cc3C2=O)c1 (stereo not drawn) | 3.87% |
| CCSC1=NC2(CCN(S(=O)(=O)c3ccccc3)CC2)N=C1c1ccccc1 | -3.23% |
| C#CCn1cc(/C=C(/C#N)C(=O)Nc2ccc(Cl)cc2)c2ccccc21 | 5.31% |
| COc1ccc(CCNC(=O)Cc2ccc3c(c2)OCO3)cc1OC | 4.11% |
| COC(=O)C1=CN(C(C)C)C=C(C(=O)OC)C1c1ccc(Cl)cc1 | 1.86% |
| CC(=O)Nc1ccc(S(=O)(=O)N(C2CCCCC2)C2CCCCC2)cc1 | -2.56% |
| Cc1ccc(-n2ncc(C(=O)NC3CC3)c2C2CCN(C(=O)OC(C)(C)C)CC2)c(C)c1 | -5.19% |
| Cc1c2c(nc3c(C(=O)NC4CCCC4)cnn13)CCCC2 | -7.73% |
| O=S(=O)(c1ccccc1)c1cnc2ccc(Cl)cc2c1N1CCOCC1 | -1.85% |
| Cc1cccc(/C=C2\SC(=O)N(C)C2=O)c1 | 2.17% |
| O=C(COc1ccc2ccccc2c1Br)N1CCCC1 | 4.49% |
| COc1cc(/C=c2/sc3n(c2=O)C(c2ccccc2OC)C(C(C)=O)=C(C)N=3)ccc1O (stereo not drawn) | 3.24% |
| Cc1cccc(NC(=O)/C(=C\c2ccco2)NC(=O)c2ccsc2)c1 | 4.67% |
| Cc1oc2ccc(OCC(=O)C(C)(C)C)cc2c1C(=O)OC(C)C | 1.37% |
| O=C(CSc1nc2cccnc2[nH]1)c1c[nH]c2ccccc12 | -1.75% |
| CC1CC(C)(C)NC(=S)N1CC(=O)N(C)Cc1ccccc1 (stereo not drawn) | -2.4% |
| O=C(CCCc1ccccc1)Nc1cccc(Br)c1 | -0.712% |
| Cc1nc2ccc(S(=O)(=O)NCC(=O)Nc3ccccn3)cc2s1 | -2.45% |

| Structure (SMILES) | % Inhibition @ 10 uM |
| --- | --- |
| Cc1cc(NO)nc(-c2ccc(Br)cc2)n1 | 0.215% |
| COc1ccc(S(=O)(=O)N2CCNCC2)cc1OC | -4.19% |
| COc1ccccc1NC(=O)c1ccccc1N(C)S(C)(=O)=O | 1.84% |
| CCN(CC)C(=O)C1CCCc2c1[nH]c1ccc(Cl)cc21 (stereo not drawn) | -3.77% |
| CC(CCc1ccccc1)NC(=O)CCc1nnc2ccc(N3CCOCC3)nn12 (stereo not drawn) | -3.1% |
| CC1(C)CC(=O)C2=C(C1)OC(N)=C(C#N)C2c1ccccc1OCc1ccc(F)cc1 (stereo not drawn) | 0.674% |
| NC(=O)C1CCN(Cc2cccc(Cl)c2)CC1 | -7.34% |
| CN(C)c1ccc(-c2ncnn2-c2cccc(O)c2)cc1 | -0.233% |
| c1ccc(-c2nc3c4ccccc4nc(N4CCc5ccccc5C4)n3n2)cc1 | 2.6% |
| O=C(Cn1sc2ccccc2c1=O)N1CCN(c2ccccn2)CC1 | 1.46% |
| Cc1cccc(Oc2ccc(NC(=O)C3CCCCC3C(=O)O)cc2)c1 (stereo not drawn) | 1.34% |
| c1ccc2c(c1)oc1c(N3CCCCC3)ncnc12 | -0.617% |
| CCOC(=O)C1=C(O)/C(=C\c2ccc(C(=O)OC)cc2)N=C1C | -7.23% |
| CC(C)C[C@H](NC(=O)CNC(=O)c1ccccc1)C(=O)NCC#N | -1.82% |
| O=C(Nc1cccnc1Cl)c1ccc2c(Cl)c3c(nc2c1)CCCC3 | 1.38% |
| COc1ccc(C(C)NCc2ccncc2)cc1 (stereo not drawn) | -9.67% |
| COc1ccc(OCC(=O)Nc2cc3oc4ccccc4c3cc2OC)cc1 | -2.73% |
| COc1ccc(OC)c(/C=C2/S/C(=N\c3ccccc3)N(C)C2=O)c1 | 4.56% |
| CC(C)(C)c1nc(CN2CCOCC2)ccc1O | -4.61% |
| COc1ccc(/C=C/C(=O)c2cccc([N+](=O)[O-])c2)cc1 | 1.7% |
| O=C(CN1CCN(C(=O)c2ccco2)CC1)Nc1c2c(nc3ccccc13)CCC2 | -1.91% |
| COCCNC(=O)CN(C)S(=O)(=O)c1c(C)cc(C)cc1C | 4.44% |
| CCN(CC)CCN(C)Cc1ccc([N+](=O)[O-])cc1 | 0.162% |
| CC(C)C[C@H](NC(=O)C1CCCCCC1)C(=O)NCC#N | -6.46% |
